From PubChem BioAssay AID1346428 (National Center for Advancing Translational Sciences (NCATS), 2018) come the findings set out here.

The structures appear in SMILES notation. The whole screen tested about 48,000 compounds, of which about 1,200 (2.5%) were called active. About 2% were inconclusive and are not listed.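 Rule for the calls: active = activation of at least 60% and not above a set upper limit (about 1 call in 100 departs from these limits); inconclusive = activation of 40% to 60%, or above that upper limit; inactive = activation under 40%.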 The list shows a part of the results.

Sequence of UniProt O75388 (O75388 whole entry, looked up): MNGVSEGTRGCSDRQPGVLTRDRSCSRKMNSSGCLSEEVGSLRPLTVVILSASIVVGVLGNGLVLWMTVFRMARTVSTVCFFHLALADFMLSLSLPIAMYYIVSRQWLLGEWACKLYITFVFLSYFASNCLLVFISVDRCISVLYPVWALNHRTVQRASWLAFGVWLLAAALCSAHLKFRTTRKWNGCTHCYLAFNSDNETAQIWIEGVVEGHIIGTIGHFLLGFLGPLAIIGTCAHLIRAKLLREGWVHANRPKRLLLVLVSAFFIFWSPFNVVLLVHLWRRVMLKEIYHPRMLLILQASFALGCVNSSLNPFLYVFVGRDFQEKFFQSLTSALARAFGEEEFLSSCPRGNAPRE

This experiment has as its target Probable G-protein coupled receptor 32 (Homo sapiens) (UniProt O75388). Kind of experiment: qHTS for Agonists of Human Resolvin D1 Receptor DRV1. Note: 0% is about no effect. Conditions: CHO-K1 GPR32 beta-arrestin PathHunter luminescence, 90 min; at 76.9 µM; active compounds read high; zero percent set by DMSO-only wells. An outline of the steps:
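Cells are plated overnight, treated with compounds in DMSO for 90 minutes at 37 °C, and developed with PathHunter detection reagent for 1 hour before luminescence is read; signal reflects beta-arrestin binding to GPR32 in engineered CHO-K1 cells.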
(In general: Quantitative high-throughput screening tests each substance at several concentrations.)
Take `COc1ccc(OC)c(S(=O)(=O)NCc2ccc3c(c2)CCN3C(=O)c2cccc(C)c2)c1`: the activation is inactive: -18.4%.
Consider `Cc1ccc(CSCCNC(=O)CN(c2cccc(C)c2C)S(=O)(=O)c2ccccc2)cc1`, for which the activation was inactive: 2.86%.
The value for `COc1ccccc1NC(=O)C1=C(C)Nc2nc(SCC(=O)c3ccc(C)cc3)nn2C1c1ccc(F)cc1` (centres undefined) was inactive: 0.968%.
For the compound `O=C(NCc1ccc(Cl)cc1)c1cnc(N2CCOCC2)c2ccccc12`, the activation was inactive: -2.4%.
For `CCCOCc1cc(CN2CCN(c3ccccc3OC)CC2)c(O)c2ncccc12` the value was inactive: 11.6%; for `CCOC(=O)c1c(NC(=O)C(C)Sc2cn(CCNC(=O)c3ccc(OC)cc3)c3ccccc23)sc2c1CCC2` (centres undefined), inactive: -6.06%; for `Cc1cccc(N2C(=O)N(Cc3ccc(C(C)(C)C)cc3)c3ccccc3S2(=O)=O)c1`, inactive: -3.66%.
The value for `COc1ccc(CNC(=O)c2ccc3c(c2)CCN3S(=O)(=O)c2ccccc2)cc1` was inactive: -3.86%.
For the compound `CC1CCCN(S(=O)(=O)c2cc(C(=O)NCCc3ccccc3)n(C)c2)C1` (centres undefined), the activation was inactive: 9.58%.
`COCCCOc1ccnc(CS(=O)c2nc3ccccc3[nH]2)c1C` (centres undefined): the activation is inactive: 11.1%.
For `Cc1ccccc1CNC(=O)c1ccc(Cn2c(SCc3ccccc3)nc3cccnc32)cc1` the value was inactive: -4.11%; for `CC(C)c1ccc(NC(=O)Cn2c(=O)oc3cc(S(=O)(=O)N4CCCC4)ccc32)cc1`, active: 96.7%.
For `Cc1noc2ncnc(N3CCCC(C(=O)Nc4cccc(C(F)(F)F)c4)C3)c12` (centres undefined), the activation is inactive: 36.5%.
As to `CCc1ccc(NC(=O)c2ccc(F)c(S(=O)(=O)N3CCN(c4cc(C)ccc4C)CC3)c2)cc1`, the activation is inactive: -16.9%.
For the compound `CCc1c(C)c(C#N)c2nc3ccccc3n2c1Nc1cccc(C(F)(F)F)c1`, the activation is inactive: 13.2%.
For `Cc1cc(C)c2c(=O)c3c(oc2c1)C(=O)N(Cc1ccco1)C3c1ccccc1F` (centres undefined) the value was inactive: -9.94%; for `COc1ccc(-c2nc(S(=O)(=O)c3ccc(C)cc3)c(NCc3ccccc3)o2)cc1`, inactive: 9.52%; for `Cn1cc(-c2cc3n(n2)CCC(=O)N3CCCC(=O)Nc2ccccc2F)c2ccccc21`, inactive: 4.73%.
As for `O=C1c2cccc(O)c2C(=O)c2c(O)cccc21`, the activation was inactive: 15.9%.
The value for `Cc1c(C(=O)NCc2ccccc2Br)oc2ccc3c(c12)C(=O)CC(C)(C)O3` was inactive: -31.1%; that for `COc1ccc(NC(=O)c2sc3nc4c(cc3c2N)CN(Cc2ccccc2)CC4)cc1OC` was inactive: 31%.
For `CCc1cccc(NC(=O)C(CC)n2nc(C)c3sc4ccccc4c3c2=O)c1` (centres undefined) the value was inactive: -6.29%; for `O=C(NCCCN1CCN(c2ccc(F)cc2)CC1)c1ccc2nc(CCc3ccccc3)oc2c1`, inactive: -9.43%; for `COc1ccc(Nc2nc(-c3ccccc3F)nc3ccccc23)cc1OC`, inactive: -13.4%.
For `CC(C)c1ccc(NC(=O)C(Cc2ccccc2)NS(=O)(=O)c2ccc3c(c2)oc(=O)n3C)cc1` (centres undefined) the value was inactive: -1.51%; for `Cc1noc(-c2ccc(-c3noc(-c4ccc(C(F)(F)F)cc4)n3)cc2)n1`, inactive: -5.95%; for `CCOc1ccc(CC(=O)NCc2ccc3c(c2)CCN3C(C)=O)cc1OCC`, inactive: -13.8%.
Take `CN(C)CCNC(=O)Cn1nc(N2CCN(c3ccccc3)CC2)ccc1=O`: the activation was inactive: -1.5%.
The value for `Cc1ccc(C)c(S(=O)(=O)c2nnn3c2nc(N2CCCCC2)c2sccc23)c1` was inactive: -29.9%; that for `COc1ccc(NC(=O)CCc2nnc3n(CC(C)C)c(=O)c4ccccc4n23)cc1OC` was inactive: 10.7%.
`CC(C)(C)OC(=O)N1CCC(c2c(C(=O)N3CCN(c4ncccn4)CC3)cnn2-c2cccc(F)c2)CC1`: the activation was inactive: -3.22%.
For `COc1ccc(OC)c(NC(=O)Cn2cc(C(=O)c3ccc(Cl)cc3)c(=O)c3cc(OC)ccc32)c1` the value was inactive: 4.33%.
For `CC(=O)Nc1nonc1-c1nnc(SCc2ccccc2Cl)n1C` the value was inactive: -6.26%; for `Cc1ccc(O)c(NC(=O)COCc2cc(-c3ccco3)on2)c1`, inactive: -32.8%.
For `COc1ccc(-c2cc(C(=O)Oc3cccc(C)c3C)c3ccccc3n2)cc1` the value was inactive: -14%; for `COc1ccc(NC(=O)c2ccc3c(c2)CCN3S(=O)(=O)c2ccccc2)cc1`, inactive: 4.25%; for `COc1cc2c(cc1OC)n(CC(=O)c1ccc(C)cc1)c(=O)n1nc(CCn3nc(C)cc3C)nc21`, inactive: -2.62%.
For the compound `CCc1ccc(NC(=O)c2sc3nc(C)cc(C)c3c2NC(=O)c2ccccc2OC)cc1`, the activation was inactive: 14.3%.
The value for `CCN(Cc1ccccc1)C(=O)CCS(=O)(=O)c1ccc2c(c1)CCN2C(C)=O` was inactive: 8.67%.
For `O=C(NC1CCCCC1)c1ccc2c(c1)N(Cc1cccc(Cl)c1)C(=O)c1ccccc1S2=O` (centres undefined) the value was inactive: -16.3%.
Turning to `COc1ccc(CN2CCN(S(=O)(=O)c3ccc(NC(C)=O)cc3)CC2)c(OC)c1OC`, the activation is inactive: -4.52%.
The value for `CCc1ccc(-c2nc(CSCC(=O)NCc3ccc(C)cc3)c(C)o2)cc1` was inactive: -26.2%; that for `O=C(NCc1ccco1)c1ccc2c(c1)N(Cc1cccc(Cl)c1)C(=O)c1ccccc1S2=O` (centres undefined) was inactive: -19.4%.
The value for `CCOc1ccc(CCNC(=O)Cn2c(C)c3cnn(-c4ccccc4)c(=O)c3c2C)cc1` was inactive: 9.46%; that for `O=C(Cn1ncc2c3ccccc3n(Cc3cccc(Cl)c3)c2c1=O)N1CCCCCC1` was inactive: -16.5%.
The value for `CCc1c(CN2CCN(c3cccc(C)c3)C(C)C2)csc1C` (centres undefined) was inactive: 10.6%.
As to `COc1cc(OC)c(NC(=O)CSc2cc(=O)n(C)c3ccc(Cl)cc23)cc1Cl`, the activation is inactive: 12%.
As to `CCc1ccc(NC(=O)CC2C(=O)N(c3ccc(Cl)cc3)C(=O)N2C2CCCC2)cc1` (centres undefined), the activation is inactive: -29.6%.
For `Cc1ccccc1Cn1c2ccccc2c2cnn(CC(=O)NCCc3ccc(Cl)cc3)c(=O)c21` the value was inactive: -12%; for `Cc1cccc(OCCn2c(-c3ccc(Cl)cc3)nc3ccccc3c2=O)c1C`, inactive: -4.72%; for `CC(=O)c1cccc(Nc2nc(-c3ccccc3Cl)nc3ccccc23)c1`, inactive: 14.9%.
Consider `CC(C)c1cccc(C(C)C)c1NS(=O)(=O)c1cccs1`, for which the activation is inactive: 16.7%.
For `CC(CCCc1ccccc1)NC(=O)c1nn(-c2ccc(Cl)cc2)nc1CO` (centres undefined) the value was inactive: -14.4%; for `Cc1ccc2[nH]c3c(=O)n(CC(=O)N4CCCC(C)C4)ncc3c2c1` (centres undefined), inactive: 32.3%; for `O=C(NC1CC(=O)N(c2ccccc2)C1)c1ccc(S(=O)(=O)N2CCCC2)cc1` (centres undefined), inactive: -7.54%.
The value for `Nc1ncc(S(=O)(=O)NCc2ccc(F)cc2)cn1` was inactive: -13.6%; that for `COc1ccc(C(=O)CCC(=O)Nc2cc(C)ccc2C)cc1` was inactive: -7.24%.
As for `COc1ccc(CNC(=O)C2CCN(S(=O)(=O)c3ccc4c(ccn4C)c3)CC2)cc1`, the activation was inactive: 1.01%.
For `Cc1cc(C)c2c(-n3cccc3)c(C(=O)NCC(C)c3ccccc3)sc2n1` (centres undefined) the value was inactive: -1.55%.
In the case of `COc1ccc(-c2nc3ccccc3s2)cc1NC(C)=O`, the activation is inactive: -2.72%.
The value for `CCOC(=O)c1c(C)[nH]c(C)c1S(=O)(=O)NCC(=O)N1CCN(c2ccccc2F)CC1` was inactive: 9.21%; that for `Cc1cccc2sc(N(Cc3cccnc3)C(=O)COc3ccccc3)nc12` was inactive: -30.2%; that for `CCOc1ccccc1NC(=O)c1cc2c(=O)[nH]c3ccccc3c2s1` was inactive: -10%.
With `COc1ccc(C(=O)Nc2ccccc2C(=O)OCc2cc(=O)n3nc(C4CC4)sc3n2)cc1`, the activation is inactive: 4.13%.
As to `CCOc1ccc(NC(=O)Cn2c(=O)cc(C)c3c(C)nn(-c4ccc(CC)cc4)c32)cc1`, the activation was inactive: -2.63%.
Take `CCOc1ccccc1NC(=O)C1CCCN(S(=O)(=O)c2cn(C)cn2)C1` (centres undefined): the activation was inactive: -13.7%.
The value for `CCOC(=O)c1c(C)oc2nc(C)nc(Nc3cc(C)ccc3OC)c12` was inactive: 3.87%.
As to `CCOC(=O)N1CCc2c(sc3c2c(=O)n(-c2ccc(CC)cc2)c(=O)n3Cc2cc(C)ccc2C)C1`, the activation was inactive: -0.181%.
For the compound `CCc1nnc(NC(=O)CSc2nc3c([nH]c4ccccc43)c(=O)n2-c2ccc(OC)cc2)s1`, the activation is inactive: -14.1%.
For the compound `CC(C)c1ccc(/C=C(\C#N)c2nc(-c3ccc(O)cc3)cs2)cc1`, the activation was inactive: -35.1%.
The value for `O=C(C1CCCCC1)N(Cc1cccnc1)c1nc2ccc(F)cc2s1` was inactive: -23.6%.
The value for `CCc1cccc(NC(=O)COc2cc(=O)n(CC)c3ccccc23)c1` was inactive: 11.2%; that for `Cn1ccc2cc(S(=O)(=O)N3CCN(C(=O)Nc4ccccc4F)CC3)ccc21` was inactive: -4.12%; that for `CCOC(=O)c1c(Nc2cccc(C)c2)nnc(-c2ccccc2)c1-c1ccccc1` was inactive: 2.72%.
With `Nc1nc(N)c(S(=O)(=O)c2ccccc2)c(Nc2ccc(F)cc2)n1`, the activation is inactive: 32.2%.
Regarding `CCOC(=O)c1cccc(NC(=O)c2sc3nc[nH]c(=O)c3c2C)c1`, the activation was inactive: -10.4%.
The value for `CCc1ccc2occ(CC(=O)N(Cc3ccc(N(C)C)cc3)C3CCS(=O)(=O)C3)c2c1` (centres undefined) was inactive: -22.1%; that for `COc1cc(-c2ccno2)ccc1S(=O)(=O)N1CCN(c2ccc(F)cc2)CC1` was inactive: -0.491%; that for `CCCc1cc(=O)[nH]c(Nc2ccc(O)cc2C)n1` was inactive: 0.479%.
Consider `O=C(CSc1nc2ccccc2nc1Cc1ccccc1)N1CCCc2ccccc21`, for which the activation was inactive: -9.03%.
The value for `CCOC(N)=O` was inactive: -8.56%; that for `Cc1cccc(N(C)S(=O)(=O)c2nnc(NC(=O)C3CCCCC3)s2)c1` was inactive: 1.18%.
The value for `O=C(O)C1CN(CCCP(=O)(O)O)CCN1` (centres undefined) was inactive: 2.7%; that for `CCOC(=O)N1CCC(NC(=O)c2ccc3c(c2)N(Cc2ccc(Cl)cc2)C(=O)c2ccccc2S3=O)CC1` (centres undefined) was inactive: 5.49%.
